The supplement of paper PMC4604168 (melanoma cell lines)
The list shows a part of the results. Single values are uncertain, as repeats are few or missing.

How the values were obtained:
Test in all cases: cell count relative to DMSO control; melanoma cells; higher = more viable cells
Details in all cases: library dose: low library concentration; 72 h
COLO792 = test system: COLO792
COLO800 = test system: COLO800
COLO829 = test system: COLO829
G361 = test system: G361
IPC-298 = test system: IPC-298
IST-MEL1 = test system: IST-MEL1
LB2518-MEL = test system: LB2518-MEL
LOXIMVI = test system: LOXIMVI
MEL-HO = test system: MEL-HO
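Also: cell number obtained by counting DAPI-stained nuclei in high-throughput microscope images with image analysis software, screen run in 1,536-well plates.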

SMILES	cell count (COLO792)	cell count (COLO800)	cell count (COLO829)	cell count (G361)	cell count (IPC-298)	cell count (IST-MEL1)	cell count (LB2518-MEL)	cell count (LOXIMVI)	cell count (MEL-HO)
Cc1ccc(Nc2nccc(N(C)c3ccc4c(C)n(C)nc4c3)n2)cc1S(N)(=O)=O [Pazopanib] + Cc1cc(SCc2sc(-c3ccc(C(F)(F)F)c(F)c3)nc2C)ccc1OCC(=O)O [GW0742] (first compound 0.4 µM, partner dose 2 µM)	102%	109%	106%	97.5%	84%	102%	101%	99.2%	89%
CC[C@]1(O)C[C@H]2CN(CCc3c([nH]c4ccccc34)[C@@](C(=O)OC)(c3cc4c(cc3OC)N(C=O)[C@H]3[C@@](O)(C(=O)OC)[C@H](OC(C)=O)[C@]5(CC)C=CCN6CC[C@]43[C@@H]65)C2)C1 [vincristine] + C/C(O)=C(\C#N)C(=O)Nc1cc(Br)ccc1Br [LFM-A13] (first compound 0.0001 µM, partner dose 2 µM)	92.1%	83.6%	68.2%	85.4%	95.5%	90.1%	78.4%	67.8%	92.3%
C[C@@H](Oc1cc(-c2cnn(C3CCNCC3)c2)cnc1N)c1c(Cl)ccc(F)c1Cl [Crizotinib] + Cc1cc(SCc2sc(-c3ccc(C(F)(F)F)c(F)c3)nc2C)ccc1OCC(=O)O [GW0742] (first compound 0.2 µM, partner dose 2 µM)	112%	98.9%	112%	93.2%	98.5%	106%	104%	142%	92.2%
Cn1c(=O)n(-c2ccc(C(C)(C)C#N)cc2)c2c3cc(-c4cnc5ccccc5c4)ccc3ncc21 + C/C(O)=C(\C#N)C(=O)Nc1cc(Br)ccc1Br [LFM-A13] (first compound 0.004 µM, partner dose 2 µM)	81.9%	81%	89.5%	98.4%	96.1%	96.1%	101%	47.4%	89.2%
N#CC[C@H](C1CCCC1)n1cc(-c2ncnc3[nH]ccc23)cn1 [ruxolitinib] + C/C(O)=C(\C#N)C(=O)Nc1cc(Br)ccc1Br [LFM-A13] (first compound 1 µM, partner dose 2 µM)	99.3%	109%	118%	91%	104%	92.6%	136%	96.7%	93.3%
C[C@@H](N)c1ccc(C(=O)Nc2ccnc3[nH]ccc23)cc1 + O=C(Oc1ccc([N+](=O)[O-])cc1)N1CCC(C(O)(c2ccc3c(c2)OCO3)c2ccc3c(c2)OCO3)CC1 [JZL184] (first compound 0.4 µM, partner dose 1 µM)	81.3%	165%	91.6%	86.3%	103%	91.9%	99.6%	87.9%	65.5%
C=C(c1ccc(C(=O)O)cc1)c1cc2c(cc1C)C(C)(C)CCC2(C)C [Bexarotene] + Cc1cc(SCc2sc(-c3ccc(C(F)(F)F)c(F)c3)nc2C)ccc1OCC(=O)O [GW0742] (first compound 2 µM, partner dose 2 µM)	99.1%	145%	112%	97%	97.6%	104%	102%	155%	83.7%
CCCCCCCCCCCCCCCCCCOP(=O)([O-])OC1CC[N+](C)(C)CC1 [Perifosine] + C/C(O)=C(\C#N)C(=O)Nc1cc(Br)ccc1Br [LFM-A13] (first compound 0.4 µM, partner dose 2 µM)	101%	68.8%	35.3%	80.8%	92.8%	97.2%	93.7%	77.2%	109%
N#CC[C@H](C1CCCC1)n1cc(-c2ncnc3[nH]ccc23)cn1 [ruxolitinib] + O=C(Oc1ccc([N+](=O)[O-])cc1)N1CCC(C(O)(c2ccc3c(c2)OCO3)c2ccc3c(c2)OCO3)CC1 [JZL184] (first compound 1 µM, partner dose 1 µM)	97.8%	172%	95.2%	108%	96.4%	97.9%	140%	123%	99.6%
CC(=O)O[C@@]12CO[C@@H]1C[C@H](O)[C@@]1(C)C(=O)[C@H](O)C3=C(C)[C@@H](OC(=O)[C@H](O)[C@@H](NC(=O)OC(C)(C)C)c4ccccc4)C[C@@](O)([C@@H](OC(=O)c4ccccc4)[C@H]21)C3(C)C [Docetaxel] + Cc1cc(SCc2sc(-c3ccc(C(F)(F)F)c(F)c3)nc2C)ccc1OCC(=O)O [GW0742] (first compound 0.0001 µM, partner dose 2 µM)	44.9%	36.3%	43.1%	25.5%	71.7%	72.4%	67.6%	61.8%	48%
NC(=O)c1ccc(N(C(N)=O)c2c(F)cccc2F)nc1-c1ccc(F)cc1F + Cc1cc(SCc2sc(-c3ccc(C(F)(F)F)c(F)c3)nc2C)ccc1OCC(=O)O [GW0742] (first compound 0.4 µM, partner dose 2 µM)	86.7%	135%	135%	104%	102%	90.3%	97.1%	100%	78.9%
Cn1cnc2c(F)c(Nc3ccc(Br)cc3Cl)c(C(=O)NOCCO)cc21 [selumetinib] + C/C(O)=C(\C#N)C(=O)Nc1cc(Br)ccc1Br [LFM-A13] (first compound 0.015 µM, partner dose 2 µM)	90.9%	83%	124%	94.4%	62.3%	89.9%	62.1%	116%	84.2%
Cc1cc(Nc2cc(N3CCN(C)CC3)nc(/C=C/c3ccccc3)n2)n[nH]1 + O=C(Oc1ccc([N+](=O)[O-])cc1)N1CCC(C(O)(c2ccc3c(c2)OCO3)c2ccc3c(c2)OCO3)CC1 [JZL184] (first compound 0.04 µM, partner dose 1 µM)	94.8%	105%	89.6%	87%	105%	110%	112%	216%	88.2%
